We go through 78 molecules from publication PMC12040169 (PLOS Biology, 2025).

The list shows a part of the results.

This test concerns T1, C. trachomatis L2/434/Bu expressing GFP (CTL2-GFP).
T1 construct: L2/434/Bu GFP intracellular growth in HeLa cells
On the set-up: species or system HeLa; C. trachomatis total inclusion area by high-content imaging, normalised to DMSO. The note with it: total inclusion area; 28.5 h, 10 µM; inhibitor. In a few lines: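 After bulk GFP and resorufin fluorescence reads, cells were fixed, stained with Hoechst and imaged by high-content microscopy. Inclusion area and number (GFP) stood in for chlamydial growth, nuclei count (Hoechst) for host cell viability. MICs were derived as for the bulk readout.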
On to `Clc1ccccc1-c1nsc(Nc2ccccc2)n1` [CBK016152], for which the “% of control remaining” value was 74.7474.

As to `COCC(=O)N1CCc2sccc2C1c1ccc(NC(=O)c2ccco2)cc1` (stereo not drawn) [CBK286200], the “% of control remaining” value was found to be 106.714.

As for `CC1CC1C(=O)NCCN1CCC(O)(c2cccc(F)c2)CC1` (stereo not drawn) [CBK283286], the “% of control remaining” value is on record as 109.78.

For `O=C(Nc1cccc2c1CCCC2)c1cnc2n(c1=O)CCS2` [CBK287379], the “% of control remaining” value was 68.9644.

Take `Cc1ccccc1-c1ccc(C(=O)Nc2ccc3c(c2)OCO3)c(N2CCN(C(=O)c3ccco3)CC2)n1` [CBK076196]: the “% of control remaining” value stood at 92.5503.

Turning to `COc1ccccc1CN(Cc1cccnc1)C(=O)c1cnc(C)cn1` [CBK306972], the “% of control remaining” value came to 99.0025.

For `COc1ccc(N2Cc3ccccc3C2=O)cc1OC` [CBK113666], the “% of control remaining” value is 115.727.

For `Oc1ccc(C2N(O)C3CCCCC3N2O)cc1` (stereo not drawn) [CBK261715], the “% of control remaining” value was 108.037.

Turning to `O=C(NCc1ccc2occc2c1)C1(c2ccccc2)CCCC1` [CBK149525], the “% of control remaining” value came out at 108.147.

For `Cc1cc2cc(CNc3cc(-c4ccccc4)ccc3O)c(=O)[nH]c2cc1C` [CBK286164], the “% of control remaining” value is 120.941.

In the case of `COc1ccccc1CC(C)NC(=O)c1ccc2nc(C)[nH]c2c1` (stereo not drawn) [CBK283261], the “% of control remaining” value stood at 91.9794.

With `Cc1cccc(-n2c(C3CCCNC3=O)n[nH]c2=S)c1` (stereo not drawn) [CBK012842], the “% of control remaining” value came out at 85.9949.

Regarding `Cc1nnc(SCC2=NN(c3nc4ccccc4[nH]3)C(=O)C2)s1` [CBK293979], the “% of control remaining” value is on record as 83.5589.

Turning to `O=C(COc1ccc2c(c1)OCO2)NCc1ccccn1` [CBK269983], the “% of control remaining” value is reported as 85.8568.

As to `O=C1NC2(Nc3ccccc31)C(=O)N(Cc1cccc3ccccc13)c1ccccc12` (stereo not drawn) [CBK264954], the “% of control remaining” value worked out at 72.716.

For `COc1cc(CNc2ccc3[nH]c(=O)[nH]c3c2)cc(Br)c1OCC(=O)NC(C)(C)C` [CBK266596], the “% of control remaining” value came out at 79.7134.

As for `Cc1ccc2oc(-c3ccc(C)c(NC(=S)NC(=O)c4ccc([N+](=O)[O-])cc4)c3)nc2c1` [CBK263897], the “% of control remaining” value is recorded as 100.217.

With `COc1ccc(CN2C(=S)N(CC3CCCCC3)[C@H]3[C@@H]2[C@H]2OC(=O)[C@@H]3C[C@H]2O)cc1` [CBK288936], the “% of control remaining” value is reported as 97.2621.

On to `CCc1nc2ccc(C(=O)Nc3ccc4c(c3)OCC(=O)N4)cn2c1N(C)CC` [CBK145521], for which the “% of control remaining” value is 71.9764.

Regarding `CC(=O)Nc1ccc(-c2ccc(=O)n3c2[C@@H]2C[C@@H](CN(C(=O)C(C)(C)C)C2)C3)cc1` [CBK289199], the “% of control remaining” value came to 105.02.

As to `COCCN(C(=O)c1cc2cc(C)ccc2s1)C1CCS(=O)(=O)C1` (stereo not drawn) [CBK304289], the “% of control remaining” value came out at 76.1162.

As for `C=CCn1c(Cc2csc(NC(=O)c3ccc(OC)cc3O)n2)n[nH]c1=S` [CBK296752], the “% of control remaining” value is recorded as 110.613.

Take `Cc1ccc(N2C(=O)N[C@@H]3CCN(S(=O)(=O)c4ccccc4)[C@@H]3C2=O)cc1` [CBK289285]: the “% of control remaining” value worked out at 113.354.

In the case of `O=C1CCC(=O)N1CCN1C(=O)C2(CC(=O)N(Cc3ccccc3)C2=O)c2ccccc21` (stereo not drawn) [CBK075705], the “% of control remaining” value is given as 124.4.

In the case of `O=S(=O)(O)c1cc(O)c2c(/N=N/c3c(S(=O)(=O)O)cc4cc(S(=O)(=O)O)cc(O)c4c3O)cc(S(=O)(=O)O)cc2c1` [CBK260934], the “% of control remaining” value turned out to be 83.8827.

Regarding `Cc1ccc(S(=O)(=O)N(C)c2ccnc(N3CCN(C)CC3)n2)cc1` [CBK000671], the “% of control remaining” value stood at 80.3674.

Take `Cc1cc(C)c(OCCNC(C)(C)C)c(Cl)c1` [CBK262713C]: the “% of control remaining” value was 86.0548.

Turning to `COc1ccc(-c2ccc(Nc3cccc(N(C)C)c3)nc2)cc1OC` [CBK037606], the “% of control remaining” value was determined as 85.4535.

Take `CC(C)(C)C(=O)CN1CCC2(CC1)NCCc1c2[nH]c2cc(F)ccc12` [CBK039568]: the “% of control remaining” value is recorded as 105.142.

`COc1ccc(S(=O)(=O)N2CC[C@H]3NC(=O)N(c4ccc(C(C)C)cc4)C(=O)[C@H]32)cc1` [CBK289290]: the “% of control remaining” value came out at 105.205.

Regarding `COc1ccc(-c2nc3c(c(SCC(=O)O)n2)COC(C)(C)C3)cc1` [CBK286704], the “% of control remaining” value was found to be 92.8637.

`O=C1C[C@@H]2CCN(C(=O)Nc3cccc(C(F)(F)F)c3)C[C@@H]2CCN1CCc1c[nH]cn1` [CBK288786]: the “% of control remaining” value was determined as 54.1557.

As to `CN1CCC[C@H]1C(=O)Nc1ccc2[nH]ccc2c1` [CBK159699], the “% of control remaining” value is recorded as 99.3675.

Regarding `O=C(CSc1nnc(-c2ccncc2)n1C1CCCCC1)Nc1ncc2c(n1)CC(c1ccccc1)CC2=O` (stereo not drawn) [CBK266177], the “% of control remaining” value turned out to be 127.77.

On to `O=C(OCc1ccccc1)Oc1cncc(C(=O)O)c1` [CBK262053], for which the “% of control remaining” value amounted to 102.858.

Regarding `O=C(Cc1c[nH]c2ccccc12)N1CCC2(CCCN(CCO)C2)C1` (stereo not drawn) [CBK132045], the “% of control remaining” value is listed as 106.112.

On to `CCN(CC)CCNC(=O)c1ccc(/C=N/O)nc1` [CBK288375], for which the “% of control remaining” value was found to be 80.3417.

Take `O=C(Nc1cccc(F)c1)N(CCO)Cc1cccnc1` [CBK304860]: the “% of control remaining” value was 47.8115.

In the case of `Cc1c(Cl)cccc1NC(=O)c1cnc2sccn2c1=O` [CBK246518], the “% of control remaining” value is recorded as 97.8028.

Turning to `CCCC/C=C/c1cnc(Nc2ccc(N3CCOCC3)cc2)c2nccn12` [CBK091239], the “% of control remaining” value amounted to 119.088.

As to `O=C(NCc1ccc(OC(F)(F)F)cc1)c1cnoc1-c1ccc(Br)cc1` [CBK154885], the “% of control remaining” value is listed as 95.7182.

`O=C(Nc1ccc(-c2ccc(F)cc2)cc1)c1ccc(N2C(=O)CCC2=O)cc1` [CBK285683]: the “% of control remaining” value is 79.827.

As for `COc1cccc(CNc2nccnc2-c2cccs2)c1OC` [CBK036784], the “% of control remaining” value came out at 142.184.

`COc1ccc(OCCNC(=O)c2ccc(-c3ccc(C(C)=O)s3)nc2N(C)C(C)=O)cc1` [CBK076576]: the “% of control remaining” value is 101.259.

For the molecule `Cc1cccc([C@@H]2CN(Cc3ccccc3)C[C@]23CCCC(=O)N3)n1` [CBK283350], the “% of control remaining” value worked out at 88.0052.

Consider `CC(C)(C)C(=O)NCCCC(=O)Nc1nc2ccc(Oc3ccccc3)cc2s1` [CBK296652], for which the “% of control remaining” value is 73.8551.

Take `Cc1ccnc2nc(C(=O)OC(C)C(=O)N3CCCC3)nn12` (stereo not drawn) [CBK306089]: the “% of control remaining” value stood at 89.77.

For the molecule `Cn1nccc1CN1CCCC(Cc2nc3ccccc3[nH]2)C1` (stereo not drawn) [CBK281892], the “% of control remaining” value was found to be 87.636.

`CCOC(=O)C1(Cc2cc(-c3cccc(F)c3)no2)CCCNC1` (stereo not drawn) [CBK284578]: the “% of control remaining” value is 63.6305.

With `CCN1c2ccc(-c3cncn3CCCn3ccnc3C)cc2CC1C` (stereo not drawn) [CBK281924], the “% of control remaining” value is recorded as 105.438.

Regarding `O=C(CC1(O)C(=O)N(Cc2ccccc2)c2ccccc21)c1cc2ccccc2oc1=O` (stereo not drawn) [CBK293963], the “% of control remaining” value is listed as 113.273.

As for `CC1CN(C(=O)/C=C/C(=O)O)c2ccccc2NC1=O` (stereo not drawn) [CBK286618], the “% of control remaining” value came to 46.1239.

For `O=C1CC2(C(=O)N1CCC1CCCCC1)C(=O)N(Cc1ccccc1)c1ccc(F)cc12` (stereo not drawn) [CBK075175], the “% of control remaining” value was determined as 119.35.

As to `CN(C(=O)[C@H]1CCCC[C@H]1C(=O)O)C1CCS(=O)(=O)C1` (stereo partly drawn) [CBK286782], the “% of control remaining” value was determined as 88.3965.

Take `Cc1ncsc1CCOc1ccc(C(F)(F)F)cn1` [CBK115790]: the “% of control remaining” value is 102.792.

Take `Clc1ccc(COc2ccnc(N3CCCN(CC4CC4)CC3)n2)cc1Cl` [CBK083963]: the “% of control remaining” value came to 66.5646.

In the case of `CCC(Oc1ccccc1C)C(=O)Nc1ccccc1C(=O)N(C)C` (stereo not drawn) [CBK270144], the “% of control remaining” value is given as 60.444.

Turning to `O=C(Cc1c[nH]c2ccccc12)N1Cc2ccccc2C1` [CBK200321], the “% of control remaining” value is 91.2475.

Take `COCCN(C)C(=O)c1cn2cc(-c3cc(C)oc3C)n(C)c(=O)c2n1` [CBK306605]: the “% of control remaining” value amounted to 82.0917.

Regarding `O=C1CC[C@@H](NCc2ccsc2)[C@H](c2cc(F)cc(F)c2)N1` [CBK282910], the “% of control remaining” value is on record as 88.8824.

With `CCN1CCC2(CCC1=O)CN(Cc1noc(CC(C)C)n1)CCN2C` (stereo not drawn) [CBK306971], the “% of control remaining” value is reported as 58.7314.

With `COc1cc(C(C)=O)ccc1OCCCN1CCC(O)(C(=O)c2ccc(F)cc2)CC1` [CBK025271C], the “% of control remaining” value is given as 10.3311.

Regarding `Cc1cc(NC(=O)C2CCN(CC3CCCO3)CC2)no1` (stereo not drawn) [CBK305544], the “% of control remaining” value is recorded as 32.9031.

`CCNC(=O)N1CC2(CCN(CCc3cccc4ccccc34)CC2)c2ccccc21` [CBK136965]: the “% of control remaining” value is on record as 72.5499.

For the molecule `CCN(CC(O)COc1cc(C)c(Cl)c(C)c1)S(=O)(=O)O` (stereo not drawn) [CBK026767N], the “% of control remaining” value was found to be 79.2706.

As to `Cc1cc(O)n2nc(CC(=O)NCCCn3c(C)cccc3=O)nc2n1` [CBK306532], the “% of control remaining” value came out at 80.5053.

As for `O=C(c1ccccc1)c1cc[n+](CCC[n+]2ccc(C(=O)c3ccccc3)cc2)cc1` [CBK278270B], the “% of control remaining” value worked out at 96.6154.

For the molecule `CCn1ncc2c1CCCC2NC1CCN(c2ccccc2)C1=O` (stereo not drawn) [CBK305144], the “% of control remaining” value was determined as 105.795.

With `Cc1[nH]c2cc(C(=O)NCCn3nccc3C)ccc2c1C` [CBK283313], the “% of control remaining” value is 84.4932.

Regarding `CC(C)N(C(=O)c1ccccc1-c1cnc2cccnn12)C(C)C` [CBK306900], the “% of control remaining” value stood at 121.225.

Consider `CCN(CC)CCOC1CCc2ccccc2CC1` [CBK016730C], for which the “% of control remaining” value was determined as 80.4609.

Consider `Cc1nc(N)sc1-c1nnc(Nc2ccccc2)s1` [CBK267353], for which the “% of control remaining” value came to 109.973.

With `CC1CCN(Cc2ccc(-c3ccc(CNC(=O)c4ccc5c(c4)OC(F)(F)O5)s3)cc2)CC1` [CBK166113], the “% of control remaining” value was 60.0509.

As for `COc1ccc(/C=C(\C)C(=O)Nc2ccc(N3CCNCC3)c3ccccc23)cc1OC` [CBK038913T], the “% of control remaining” value is on record as 77.2421.

As to `CC1Cc2cc(CC(=O)N(C)CC(F)(F)F)ccc2O1` (stereo not drawn) [CBK283067], the “% of control remaining” value was determined as 72.8508.

Turning to `Cc1nn(C)c2ncc(S(=O)(=O)NCC(N)c3ccc(F)cc3F)cc12` (stereo not drawn) [CBK304303C], the “% of control remaining” value came out at 72.4702.

For `CCn1cc(CN2CCCN(C(=O)c3cc(C)on3)CC2)cn1` [CBK306145], the “% of control remaining” value is on record as 54.4304.

Regarding `C=CCOc1ccccc1CNc1nc[nH]n1` [CBK267234], the “% of control remaining” value is on record as 97.6974.
